Where “and” joins values, the source holds several entries; their conditions need not be identical. Equal values may be shown once. The source gives many values for each of these; only a part stands here.

Common to all, as to test: TEVC recording in X. laevis oocytes, GluN2B mutant screening
Holding throughout (assay type): cell-based

Experiment [1] deals with GluN1a wt/ GluN2B F176A (Rattus norvegicus, UniProt P35439+Q00960, F176A). The following applies: GluN1-1a/F176A, individual oocytes. The procedure: Single point mutations were incorporated into template DNA (GluN1-1b wt/ pSGEM and GluN2B wt/ pSGEM) by using the QuikChange II XL site-directed mutagenesis kit (Agilent Technologies, Germany). Mutagenesis primers were designed using the QuikChange Primer Design Program (Agilent) and provided by Microsynth (Microsynth AG, Balgach, Switzerland). For mutation of the desired amino acid in the gene, PCR amplification was performed with the respective mutagenesis primers (Eppendorf MasterCycler Gradient, Eppendorf Hamburg, Germany). Mutations were verified by automated DNA sequencing. Constructs were linearized with PacI (GluN1) or NheI (GluN2B). cRNA was prepared byin vitrotranscription using the mMessage mMachine T7 kit (Life Technologies, Darmstadt, Germany).
The NMDAR was expressed in stage V and VI oocytes originated from X. laevis. Oocytes were provided by Ecocyte Bioscience (Dortmund, Germany), and equimolar amounts of wild-type and mutated GluN1 and GluN2B cRNA were injected (0.8 ng each). The oocytes were incubated in Barth’s solution, containing (mmol l^−1): 88 NaCl, 1 KCl, 0.4 CaCl2, 0.33 Ca(NO3)2, 0.6 MgSO4, 5 TRIS–HCl, 2.4 NaHCO3, supplemented with 80 mg l^−1 theophylline, 63 mg l^−1 benzylpenicillin, 40 mg l^−1 streptomycin, and 100 mg l^−1 gentamycin and maintained at 18 °C until usage. After injection, the oocytes were incubated for 5 days at 18 °C. Subsequently, the activity of the expressed NMDARs in the oocytes was recorded by two-electrode voltage clamp (TEVC).
The compounds were retrieved as 10 mM stock solutions in DMSO and were subsequently diluted with agonist solution and adjusted to 0.1% DMSO concentration. Inhibition of each compound was measured via TEVC in X. laevis oocytes at room temperature using a Turbo Tec 10CX amplifier (NPI electronic, Tamm, Germany), NI USB 6221 DA/AD Interface (National Instruments, Austin, USA), and GePulse Software (Dr. Michael Pusch, Genova, Italy). Ba^2+-Ringer, consisting of 10 mM HEPES, 90 mM NaCl, 1 mM KCl, and 1.5 mM BaCl2, adjusted to pH 7.4, was used for TEVC measurements. Agonist solution containing 10 µM glycine and 10 µM (S)-glutamate was prepared in Ba^2+-Ringer, and the measurements were performed at a holding potential of − 70 mV, using electrodes with a glass capillary filled with 3 M KCl and a resistance between 0.5 and 1.5 MΩ. The compounds were tested by applying ascending concentrations, ranging from 1 to 30,000 nM, in at least six oocytes. Example traces for all recorded conditions can be found in Supplementary Figs. S2–S9.
TEVC data were analyzed using Ana (Dr. Michael Pusch, Genova, Italy), and statistics were performed using OriginPro 2020 (OriginLab Corporation, Northampton, USA). The inhibitory effect of each compound is calculated using the following equation: inhibition=1-Ic-Ih/Ia-Ih where Ih describes the current in the absence of agonists; Ia represents the steady-state current in the presence of the agonists; and Ic is defined as the steady-state after binding of agonist and compound. All dose response curves are fitted to the following logistic equation: y=A1-A2/1+x/x0^p+A2 where A1 describes the minimal inhibition of a compound and was set to 0; A2 represents the maximal inhibition of a compound; p is the slope of the curve; x0 is defined as the concentration at half-maximal inhibition; and x is the tested concentration. Data were statistically analyzed by one-way ANOVA and Tukey post-hoc mean comparison test in OriginPro 2020 (OriginLab Corporation, Northampton, USA). p values are indicated by * for p < 0.05, ** for p < 0.01, and *** for p < 0.001.

Experiment [2] has as its target GluN1a wt/ GluN2B F114A (Rattus norvegicus, UniProt P35439+Q00960, F114A). As to conditions: GluN1-1a/F114A, individual oocytes.
The target of experiment [3] is GluN1a wt/ GluN2B Q110A (Rattus norvegicus, UniProt P35439+Q00960, Q110A). As to conditions: GluN1-1a/Q110A, individual oocytes.
The mark [4] stands for this setting: compound concentration 0.1 μM, 0.1 µM.
[5] abbreviates: compound concentration 1 μM, 1 µM.
Where [6] appears, read: compound concentration 10 μM, 10 µM.
[7] abbreviates: compound concentration 30 μM, 30 µM.

Chain of GluN1a wt/ GluN2B F176A (Q00960 27-1482 F176A, other chains not shown): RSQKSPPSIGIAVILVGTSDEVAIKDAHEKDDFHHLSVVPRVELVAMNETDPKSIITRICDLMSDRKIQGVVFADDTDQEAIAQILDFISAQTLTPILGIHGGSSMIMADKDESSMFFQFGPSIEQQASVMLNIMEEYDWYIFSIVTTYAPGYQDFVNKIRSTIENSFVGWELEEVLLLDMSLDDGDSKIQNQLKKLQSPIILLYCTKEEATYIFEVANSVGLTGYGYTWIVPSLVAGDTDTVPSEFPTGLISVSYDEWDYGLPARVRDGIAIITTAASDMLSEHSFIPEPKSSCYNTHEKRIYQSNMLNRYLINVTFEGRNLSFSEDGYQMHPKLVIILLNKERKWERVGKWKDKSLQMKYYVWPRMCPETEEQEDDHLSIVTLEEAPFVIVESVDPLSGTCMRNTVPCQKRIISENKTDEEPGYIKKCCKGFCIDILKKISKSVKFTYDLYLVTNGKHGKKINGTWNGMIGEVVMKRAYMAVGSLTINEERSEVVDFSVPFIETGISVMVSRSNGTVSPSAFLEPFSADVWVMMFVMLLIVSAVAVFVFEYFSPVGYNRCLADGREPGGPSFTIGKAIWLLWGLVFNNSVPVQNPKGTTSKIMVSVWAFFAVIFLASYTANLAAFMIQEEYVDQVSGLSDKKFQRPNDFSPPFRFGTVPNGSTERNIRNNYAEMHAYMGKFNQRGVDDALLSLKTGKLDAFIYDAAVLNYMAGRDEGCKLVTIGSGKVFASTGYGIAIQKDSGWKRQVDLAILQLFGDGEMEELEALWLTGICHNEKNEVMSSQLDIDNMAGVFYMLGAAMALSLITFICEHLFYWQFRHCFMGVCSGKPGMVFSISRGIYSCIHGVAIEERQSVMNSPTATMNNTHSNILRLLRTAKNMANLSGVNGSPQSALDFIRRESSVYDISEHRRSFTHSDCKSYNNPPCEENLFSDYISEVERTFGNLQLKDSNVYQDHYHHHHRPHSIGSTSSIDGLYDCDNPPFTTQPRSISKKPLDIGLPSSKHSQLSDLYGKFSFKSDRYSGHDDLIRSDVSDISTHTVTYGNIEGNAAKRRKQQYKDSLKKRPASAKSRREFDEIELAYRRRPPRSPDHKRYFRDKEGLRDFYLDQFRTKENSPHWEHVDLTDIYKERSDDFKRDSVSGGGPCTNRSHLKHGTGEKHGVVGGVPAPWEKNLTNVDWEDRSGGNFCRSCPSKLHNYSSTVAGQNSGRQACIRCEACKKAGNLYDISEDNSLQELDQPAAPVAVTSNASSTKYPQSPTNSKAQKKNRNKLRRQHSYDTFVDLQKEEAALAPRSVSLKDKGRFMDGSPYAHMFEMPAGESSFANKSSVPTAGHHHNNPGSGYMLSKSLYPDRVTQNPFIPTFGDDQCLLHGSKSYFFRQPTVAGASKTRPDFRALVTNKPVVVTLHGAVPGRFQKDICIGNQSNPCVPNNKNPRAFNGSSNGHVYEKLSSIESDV
Chain of GluN1a wt/ GluN2B F114A (Q00960 27-1482 F114A, other chains not shown): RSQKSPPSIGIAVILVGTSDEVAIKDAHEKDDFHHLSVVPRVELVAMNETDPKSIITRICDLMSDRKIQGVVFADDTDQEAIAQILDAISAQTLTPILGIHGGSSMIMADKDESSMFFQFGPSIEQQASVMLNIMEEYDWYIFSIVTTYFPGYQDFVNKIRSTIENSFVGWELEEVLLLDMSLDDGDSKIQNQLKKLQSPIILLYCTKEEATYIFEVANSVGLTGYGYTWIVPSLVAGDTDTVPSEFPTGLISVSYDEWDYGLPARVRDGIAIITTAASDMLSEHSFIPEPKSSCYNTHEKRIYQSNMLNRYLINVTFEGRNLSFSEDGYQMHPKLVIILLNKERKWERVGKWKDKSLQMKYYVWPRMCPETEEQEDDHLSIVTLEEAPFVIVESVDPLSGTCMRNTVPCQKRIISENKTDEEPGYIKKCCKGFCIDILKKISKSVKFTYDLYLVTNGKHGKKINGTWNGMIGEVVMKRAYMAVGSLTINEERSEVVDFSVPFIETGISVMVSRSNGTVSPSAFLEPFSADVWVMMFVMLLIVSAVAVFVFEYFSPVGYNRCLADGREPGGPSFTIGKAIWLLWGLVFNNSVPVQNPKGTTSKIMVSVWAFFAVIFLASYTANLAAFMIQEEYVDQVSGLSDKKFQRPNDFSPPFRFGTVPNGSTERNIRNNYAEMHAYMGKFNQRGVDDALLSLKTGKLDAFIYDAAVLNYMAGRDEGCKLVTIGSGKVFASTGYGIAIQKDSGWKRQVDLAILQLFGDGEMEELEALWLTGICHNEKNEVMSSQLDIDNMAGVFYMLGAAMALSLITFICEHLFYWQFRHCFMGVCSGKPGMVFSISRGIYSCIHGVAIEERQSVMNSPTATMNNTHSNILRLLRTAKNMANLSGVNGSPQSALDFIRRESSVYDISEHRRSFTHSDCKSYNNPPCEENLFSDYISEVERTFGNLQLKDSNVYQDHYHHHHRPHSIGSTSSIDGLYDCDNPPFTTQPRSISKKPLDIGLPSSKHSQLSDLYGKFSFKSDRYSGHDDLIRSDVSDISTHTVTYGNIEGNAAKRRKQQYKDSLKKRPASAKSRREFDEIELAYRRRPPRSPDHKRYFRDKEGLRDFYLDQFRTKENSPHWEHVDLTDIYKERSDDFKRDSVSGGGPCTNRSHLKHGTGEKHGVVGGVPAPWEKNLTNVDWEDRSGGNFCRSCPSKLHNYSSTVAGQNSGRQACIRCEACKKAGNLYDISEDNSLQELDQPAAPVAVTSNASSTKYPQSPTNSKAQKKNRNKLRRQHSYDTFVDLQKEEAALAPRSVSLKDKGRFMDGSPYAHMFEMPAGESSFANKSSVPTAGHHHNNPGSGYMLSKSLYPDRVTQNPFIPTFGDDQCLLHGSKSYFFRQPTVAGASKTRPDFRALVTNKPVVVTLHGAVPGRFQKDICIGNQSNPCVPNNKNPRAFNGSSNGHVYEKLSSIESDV
Chain of GluN1a wt/ GluN2B Q110A (Q00960 27-1482 Q110A, other chains not shown): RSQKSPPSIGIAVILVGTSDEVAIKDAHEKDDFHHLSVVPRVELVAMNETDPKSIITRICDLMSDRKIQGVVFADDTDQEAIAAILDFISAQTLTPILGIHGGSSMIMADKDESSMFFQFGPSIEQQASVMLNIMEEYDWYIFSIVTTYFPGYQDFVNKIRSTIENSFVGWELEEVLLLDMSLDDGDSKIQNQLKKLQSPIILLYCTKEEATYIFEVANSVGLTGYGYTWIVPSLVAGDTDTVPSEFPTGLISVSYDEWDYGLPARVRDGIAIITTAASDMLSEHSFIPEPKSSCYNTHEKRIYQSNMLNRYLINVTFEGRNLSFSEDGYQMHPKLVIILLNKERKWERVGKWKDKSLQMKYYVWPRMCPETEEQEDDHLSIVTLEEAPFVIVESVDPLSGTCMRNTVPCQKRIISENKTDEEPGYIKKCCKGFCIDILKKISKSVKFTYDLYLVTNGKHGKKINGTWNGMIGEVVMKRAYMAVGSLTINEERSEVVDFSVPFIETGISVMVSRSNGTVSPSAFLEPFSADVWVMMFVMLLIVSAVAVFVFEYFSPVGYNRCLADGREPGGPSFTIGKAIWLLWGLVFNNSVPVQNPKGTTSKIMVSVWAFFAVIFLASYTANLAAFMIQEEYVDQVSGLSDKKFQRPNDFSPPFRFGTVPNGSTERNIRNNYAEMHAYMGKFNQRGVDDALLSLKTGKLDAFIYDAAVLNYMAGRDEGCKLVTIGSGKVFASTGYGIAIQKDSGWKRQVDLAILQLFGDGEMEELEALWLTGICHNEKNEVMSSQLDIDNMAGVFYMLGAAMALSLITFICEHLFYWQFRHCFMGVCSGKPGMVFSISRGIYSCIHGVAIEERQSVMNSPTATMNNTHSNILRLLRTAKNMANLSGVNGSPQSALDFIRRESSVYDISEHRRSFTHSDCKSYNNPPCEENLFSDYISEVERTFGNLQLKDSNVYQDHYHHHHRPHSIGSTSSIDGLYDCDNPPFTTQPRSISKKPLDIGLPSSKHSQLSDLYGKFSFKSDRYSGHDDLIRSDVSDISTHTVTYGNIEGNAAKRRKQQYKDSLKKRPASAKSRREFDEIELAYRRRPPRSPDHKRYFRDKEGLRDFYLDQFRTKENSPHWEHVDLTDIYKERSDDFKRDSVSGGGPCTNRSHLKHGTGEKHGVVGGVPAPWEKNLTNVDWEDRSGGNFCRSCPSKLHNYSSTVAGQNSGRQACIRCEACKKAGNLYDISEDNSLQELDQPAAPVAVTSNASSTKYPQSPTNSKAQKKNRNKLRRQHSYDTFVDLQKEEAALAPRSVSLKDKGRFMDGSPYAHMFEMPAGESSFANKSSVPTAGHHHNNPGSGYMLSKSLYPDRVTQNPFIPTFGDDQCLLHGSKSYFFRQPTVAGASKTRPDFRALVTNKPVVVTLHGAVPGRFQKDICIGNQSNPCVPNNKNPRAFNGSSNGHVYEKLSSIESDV

For the compound `Oc1ccc2c(c1)CCN(CCCCc1ccccc1F)C[C@@H]2O` [OF-NB1 R], the “inhibition (%)” value in experiment [1] (setting [4]) was 0.0678% and 2.627% and 1.87% and 0.6849% and 0.2286% and 0.9658% and 0.03656% and 0.02653% and -0.1669% and 0.1209% and -0.04753%; in experiment [1] (setting [5]), 14.4407% and 14.4927% and 9.493% and 16.5753% and 15.6571% and 17.5593% and 23.2907% and 22.7381% and 16.1102% and 8.404% and 10.3375%; in experiment [1] (setting [6]), 28.6102% and 25.9058% and 19.4894% and 26.4384% and 28.2286% and 31.1677% and 39.1225% and 37.2778% and 33.222% and 21.8259% and 23.1701%; in experiment [1] (setting [7]) it was 42.0339% and 39.4475% and 34.8795% and 39.3151% and 43.3714% and 47.7612% and 57.3675% and 51.3929% and 49.7496% and 36.8803% and 42.9658%; in experiment [2] (setting [4]) it was 2.548% and 6.871%; in experiment [2] (setting [5]), 11.2209%. The “inhibition (%)” value in experiment [2] (setting [6]) was 49.4384%; in experiment [2] (setting [7]) it was 65.8902%; in experiment [3] (compound concentration 0.001 μM, 0.001 µM) it was -0.06931% and 0.4355% and 0% and -3.658% and 0.03081%; in experiment [3] (compound concentration 0.01 μM, 0.01 µM), 1.232% and 1.612% and 0.6817% and 0.2175% and 0.2419% and -3.522%; in experiment [3] (setting [4]) it was 1.479% and 2.565% and 9.884% and 1.015% and 0.8871% and -7.992%; in experiment [3] (setting [5]), 81.3001% and 76.4859% and 76.5385% and 55.6925% and 70% and 59.6044%. Further, the “inhibition (%)” value in experiment [3] (setting [6]) was 88.7246% and 84.6994% and 80.9695% and 91.5881% and 81.6129% and 73.2864%; in experiment [3] (setting [7]) it was 91.528% and 88.3036% and 81.8784% and 96.5917% and 92.7419% and 78.4069%.

Values taken from article PMC10657792, “Downstream Allosteric Modulation of NMDA Receptors by 3-Benzazepine Derivatives” (Molecular Neurobiology, 2023).
